About 2,200 (0.71%) of roughly 310,000 compounds showed an effect of 50% or more. Effects have a minus sign here. The list shows a part of the results.

Sequence of human ether-à-go-go-related gene (hERG) potassium channel (Q12809 whole entry, looked up): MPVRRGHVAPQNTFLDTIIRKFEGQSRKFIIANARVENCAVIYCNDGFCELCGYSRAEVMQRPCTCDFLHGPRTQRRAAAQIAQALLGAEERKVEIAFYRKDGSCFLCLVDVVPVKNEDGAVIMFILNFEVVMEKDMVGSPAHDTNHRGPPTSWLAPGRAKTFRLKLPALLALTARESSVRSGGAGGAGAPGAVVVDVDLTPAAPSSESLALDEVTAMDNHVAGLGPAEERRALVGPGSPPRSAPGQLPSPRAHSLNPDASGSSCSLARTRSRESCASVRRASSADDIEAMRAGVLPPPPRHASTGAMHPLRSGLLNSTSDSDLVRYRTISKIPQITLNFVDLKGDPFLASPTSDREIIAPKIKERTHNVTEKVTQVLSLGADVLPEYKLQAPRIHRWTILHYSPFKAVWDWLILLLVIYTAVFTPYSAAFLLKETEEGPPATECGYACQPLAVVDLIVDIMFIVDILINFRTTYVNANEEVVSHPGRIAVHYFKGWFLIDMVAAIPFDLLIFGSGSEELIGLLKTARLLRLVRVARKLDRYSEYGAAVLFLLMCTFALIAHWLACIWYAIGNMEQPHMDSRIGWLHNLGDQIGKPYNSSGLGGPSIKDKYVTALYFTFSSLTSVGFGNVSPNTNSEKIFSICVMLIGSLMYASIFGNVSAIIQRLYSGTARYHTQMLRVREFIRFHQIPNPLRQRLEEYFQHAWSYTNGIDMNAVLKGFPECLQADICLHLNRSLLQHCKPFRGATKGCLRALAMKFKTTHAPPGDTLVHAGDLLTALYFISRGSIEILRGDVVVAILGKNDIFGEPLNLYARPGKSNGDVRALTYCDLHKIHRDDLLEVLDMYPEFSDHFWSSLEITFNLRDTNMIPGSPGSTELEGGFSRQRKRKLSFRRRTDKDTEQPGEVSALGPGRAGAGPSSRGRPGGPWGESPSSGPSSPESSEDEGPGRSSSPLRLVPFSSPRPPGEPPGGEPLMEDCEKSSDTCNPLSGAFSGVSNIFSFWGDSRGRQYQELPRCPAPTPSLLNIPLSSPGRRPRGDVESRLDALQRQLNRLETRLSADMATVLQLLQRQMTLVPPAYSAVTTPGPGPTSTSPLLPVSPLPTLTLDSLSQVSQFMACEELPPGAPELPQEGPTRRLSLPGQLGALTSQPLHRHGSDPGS

The experiment concerns the target human ether-à-go-go-related gene (hERG) potassium channel (human, UniProt Q12809). Put plainly: primary screen, population patch clamp on CHO cells stably expressing hERG.
In the case of `COc1cc(NC(=S)NC(C)=O)ccc1NC(=O)C(C)C`, the “hERG current change (%, negative = inhibition) at 1uM” value is listed as 3.5%. For `COc1ccc([N+](=O)[O-])cc1C(=O)C(=O)c1ccccc1`, the “hERG current change (%, negative = inhibition) at 1uM” value is 10.6%. With `CC(C)N(Cc1nc2ccccc2[nH]1)C(C)C`, the “hERG current change (%, negative = inhibition) at 1uM” value stood at 11.6%. On to `CC(C)(C)C(C(=O)O)N1CCS(=O)(=O)CC1` (stereo not drawn), for which the “hERG current change (%, negative = inhibition) at 1uM” value is 13.4%. Next, `CCCC(=O)Nc1ccc(C(=O)N/N=C/c2cccnc2)cc1`: 3.39%; `CCOC(=O)Cc1csc(NC(=O)NC2(C(F)(F)F)Oc3ccccc3O2)n1`: 5.01%. As to `COc1ccc(/C=N/NC(=O)c2ccc(N(C)S(=O)(=O)c3ccccc3)cc2)c(OC)c1`, the “hERG current change (%, negative = inhibition) at 1uM” value is 4.6%.

Regarding `C#CC[N+](C)(C)CC#Cc1ccc(Cl)cc1.[Br-]`, the “hERG current change (%, negative = inhibition) at 1uM” value is 7.44%. `O=C(NNC(=O)c1cccs1)c1ccncc1`: the “hERG current change (%, negative = inhibition) at 1uM” value was found to be 16%. Regarding `CCOc1ccccc1NC(=O)CCc1ccc(C)o1`, the “hERG current change (%, negative = inhibition) at 1uM” value turned out to be 4.34%. Then `CS(=O)(=O)c1ccc2nc(NC(=O)CCC(=O)c3cccs3)sc2c1`, with 3.84%. On to `CCOc1ccc(-n2c(-c3ccccc3)c[nH]c2=S)cc1`, for which the “hERG current change (%, negative = inhibition) at 1uM” value came to 16.6%. Then `CCOC(=O)c1cnc(Nc2nc3ccccc3o2)nc1CSC(=S)N(CC)CC`, with 13.8%; and `Cc1cc(C)n(-c2cc(C(C)(C)C)nc3c(-c4ccccc4)cnn23)n1`, with 14.4%; and `O=C(CSc1nc(-c2ccccc2Cl)ns1)Nc1ccc2c(c1)OCO2`, with 8.94%. Next, `CCOC(=O)C1(Cc2ccccc2C)CCCN(C(=O)CCC(=O)OC)C1` (stereo not drawn): 7.66%; `CCOCCCNC(=O)C(NC(=O)Cc1cccs1)c1ccc(C)cc1` (stereo not drawn): 9.42%; `O=C1/C(=C\c2ccccn2)SC(=S)N1c1ccc(S(=O)(=O)Nc2nccs2)cc1`: 7.42%. As for `N/C(=N\OC(=O)c1ccc(Br)cc1)c1ccccc1`, the “hERG current change (%, negative = inhibition) at 1uM” value is reported as -2.65%. For `CCC(C)(C)NC(=O)CN(C(=O)C(=O)Nc1ccc2c(c1)OCCO2)C1CC1`, the “hERG current change (%, negative = inhibition) at 1uM” value stood at 12.1%. Then `CS/C(=C\C(=O)c1ccco1)Nc1ccccc1Cl`, with 9.56%. As to `O=C(NNC(=S)NC(=O)c1cccnc1)c1ccccc1`, the “hERG current change (%, negative = inhibition) at 1uM” value amounted to 6.23%. Turning to `CCc1cc(-c2n[nH]c(C)c2-c2nc3ccccc3n2C)c(O)cc1O`, the “hERG current change (%, negative = inhibition) at 1uM” value is on record as 9.86%. With `CSc1nc(N)nc(-c2cccs2)c1C#N`, the “hERG current change (%, negative = inhibition) at 1uM” value is given as -16.9%. Regarding `COc1cccc(COc2ncnc3sccc23)c1`, the “hERG current change (%, negative = inhibition) at 1uM” value was -7.63%. As to `Cn1c(CC(=O)Nc2ccccc2F)nnc1SCC(=O)Nc1nncs1`, the “hERG current change (%, negative = inhibition) at 1uM” value worked out at 12.9%. For the compound `Cc1ccc(C(=O)NN2C(=O)C3C4c5ccccc5C(c5ccccc54)[C@@H]3C2=O)cc1` (stereo partly drawn), the “hERG current change (%, negative = inhibition) at 1uM” value is on record as 17.5%. Then `Cc1ccc(S(=O)(=O)NCC(c2ccc3c(c2)OCO3)N2CCN(c3ccccc3)CC2)cc1` (stereo not drawn), with 13.5%; and `O=[N+]([O-])c1ccc(S(=O)(=O)N2CCSC2c2ccco2)cc1` (stereo not drawn), with 8.66%; and `O=S(=O)(NCCSCc1ccc(Cl)cc1Cl)c1ccc2c(c1)OCCO2`, with 7.68%. With `CCc1ccc(NC(=O)CS(=O)CC(=O)NCC2OCCc3ccccc32)cc1` (stereo not drawn), the “hERG current change (%, negative = inhibition) at 1uM” value is listed as -0.968%.

Turning to `CCC(c1nnnn1C(C)(C)C)N1CCN(C2CCCC2)CC1` (stereo not drawn), the “hERG current change (%, negative = inhibition) at 1uM” value amounted to 4.37%.

Consider `COc1ccc(C(=O)O/N=C/c2c(C(F)(F)F)nn(C)c2SCc2ccccc2Cl)cc1`, for which the “hERG current change (%, negative = inhibition) at 1uM” value is on record as -12.9%. As to `COc1cc(NC(=O)COC(=O)c2ccc(S(=O)(=O)N3CC(C)CC(C)C3)cc2)c(C)cc1[N+](=O)[O-]` (stereo not drawn), the “hERG current change (%, negative = inhibition) at 1uM” value is given as 5.69%. With `Cc1ccc(C2=NN(CC(=O)NCc3cccs3)C(=O)CC2)cc1`, the “hERG current change (%, negative = inhibition) at 1uM” value was -3.93%. Next, `O=C(NCc1cccc(Cl)c1)c1ccc2nc[nH]c2c1`: 17.8%; `CCCCNC(=O)NNC(=O)C1CC1(c1ccccc1)c1ccccc1` (stereo not drawn): 15.2%; `Cc1cc(C(F)(F)F)nn1CC(=O)NNC(=S)Nc1ccc(F)cc1`: 11.5%.

As to `O=[N+]([O-])c1cccc(-c2noc(-c3ccco3)n2)c1`, the “hERG current change (%, negative = inhibition) at 1uM” value is given as 16%. Next, `O=C(OCC(=O)N1c2ccccc2Sc2ccccc21)c1cccnc1`: 7.62%; `CN(C)C(=O)c1cc(C(=O)Cc2ccccc2)c[nH]1`: 18.1%. Take `COc1ccc(NC(=O)CSc2n[nH]c(C(C)C)n2)c([N+](=O)[O-])c1`: the “hERG current change (%, negative = inhibition) at 1uM” value amounted to 10.4%. Then `O=C1CC(c2ccccc2)CC(O)=C1C=NCc1ccc(Cl)cc1` (stereo not drawn), with 10.4%. Then `COCCN(Cc1ccc(C)c(Br)c1)C(=O)Cn1cnc(S(=O)(=O)N2CCCC2)c1`, with 4.5%; and `CCN(C(=O)c1cc2c(s1)-c1ccccc1S(=O)(=O)C2)c1cc(OC)ccc1OC`, with 3.56%; and `CCOc1ccccc1N1CCN(Cc2cc3c(cc2[N+](=O)[O-])OCO3)CC1`, with 4.28%. With `O=C(Nc1cccc(-c2nc3ncccc3o2)c1)c1ccco1`, the “hERG current change (%, negative = inhibition) at 1uM” value is -6.26%.

As to `Cc1ccc(S(=O)(=O)N2CCC(N3CCN(C)CC3)CC2)cc1Cl.O=C(O)C(=O)O`, the “hERG current change (%, negative = inhibition) at 1uM” value is recorded as 7.12%. As for `O=C(Nc1ccc(S(=O)(=O)N2CCOCC2)cc1)c1ccc(Cl)cc1`, the “hERG current change (%, negative = inhibition) at 1uM” value amounted to 2.16%. On to `COc1ccc(C2=NOC(C(=O)NC(C)(C)C)C2)cc1` (stereo not drawn), for which the “hERG current change (%, negative = inhibition) at 1uM” value is -3.31%.

Consider `COc1cccc(CC(CC(=O)O)C(=O)Nc2cc(C)ccc2C)c1` (stereo not drawn), for which the “hERG current change (%, negative = inhibition) at 1uM” value was found to be 8.13%. Regarding `CCOC(=O)N1CCN(C(=O)Cn2nc(C)n3nc(-c4ccccc4)cc3c2=O)CC1`, the “hERG current change (%, negative = inhibition) at 1uM” value came out at 10.1%. Next, `Cc1ccc(C)c(OCCC(=O)OCC(=O)NNC(=O)c2ccccc2)c1`: 12.9%. For `CC1CCN(S(=O)(=O)c2ccc3c(c2)oc(=O)n3CC(=O)N2CCc3ccccc3C2)CC1`, the “hERG current change (%, negative = inhibition) at 1uM” value stood at 7.51%.

Consider `Cc1ccc2cccc(NC(=O)C(F)(F)F)c2n1`, for which the “hERG current change (%, negative = inhibition) at 1uM” value turned out to be 12.5%. Next, `CCCCOc1ccc(-c2cc(C(F)(F)F)c(C#N)c(SCC(=O)O)n2)cc1`: 6.97%. Consider `O=C(CCc1ccccc1)NNC(=O)Nc1ccc(Cl)cc1`, for which the “hERG current change (%, negative = inhibition) at 1uM” value came to 16.4%.

The values above are taken from publication PMC4336329 (PLoS ONE, 2015).
